Some of these densities may be calculated back from excess volumes.
Experiment: xn = mol fraction of the nth substance listed
Conditions: 100 kPa

CCCC[n+]1ccn(C)c1.F[P-](F)(F)(F)(F)F + C=CN1CCCC1=O
x1 = 1
Conditions	mass density [kg/m3]
298.15 K	1367.2
303.15 K	1363
308.15 K	1358.7
313.15 K	1354.5
318.15 K	1350.2
323.15 K	1346

C=CN1CCCC1=O + CCCC[n+]1ccn(C)c1.F[P-](F)(F)(F)(F)F
mass density [kg/m3]
Conditions	x2 = 0	x2 = 0.1011	x2 = 0.2059	x2 = 0.3019	x2 = 0.3937	x2 = 0.5023	x2 = 0.584	x2 = 0.6946	x2 = 0.7788	x2 = 0.8707
298.15 K	1039.4	–	1156.1	1197	1230.3	1264	1286	1311.9	1329.3	1346.3
303.15 K	–	1098.2	1151.9	–	1226.2	1259.9	1281.8	1307.8	1325.1	1342.1
308.15 K	1030.6	1094	–	–	1222	1255.7	1277.6	–	1320.9	1337.9
313.15 K	1026.1	1089.7	1143.5	–	1217.9	–	1273.5	–	1316.7	1333.6
318.15 K	1021.7	–	–	1180.3	1213.7	1247.4	1269.3	1295.2	1312.5	1329.4
323.15 K	–	1081.1	–	–	1209.6	1243.3	1265.2	1291	1308.3	1325.2
